Where a name gives a salt, the structure may show the parent alone. ± gives the standard error. In all, about 1,300 compounds went through this assay and about 130 (10%) showed an effect of 50% or more. This is a selection; strong and weak results do not stand in their true shares.
System: Trichoderma virens ATCC 9645
Assay: growth yield (OD600) with compound + IPBC relative to untreated control; higher = less growth inhibition
Conditions: compound concentration: 100 uM, IPBC concentration: 200 ng/ml
How it was run: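 Trichoderma virens ATCC 9645 spores, from potato dextrose agar plates grown for 7 days, were brought to 15,000 spores ml^−1 in potato dextrose broth and dispensed as 100 μl aliquots into 96-well plates. Each aliquot received library compounds at 100 μM final, with or without a biocide at 200 ng ml^−1, before growth at 30 °C and OD600 readings on a BioTek EL800 at 40 h and 72 h. Growth is expressed relative to the control containing neither agent and represents means of duplicate screens.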

| SMILES | growth yield (40 h) [%] | growth yield (72 h) [%] |
| --- | --- | --- |
| O=C(CCCCCCC(=O)Nc1ccccc1)NO [Vorinostat] + CCCCNC(=O)OCC#CI [3-iodo-2-propynyl butylcarbamate (IPBC)] | 107 ± 9.5 | 99.5 ± 3.9 |
| COC(=O)C1=C(C)NC(C)=C(C(=O)OC2CCCN(Cc3ccccc3)C2)C1c1cccc([N+](=O)[O-])c1 (centres undefined) [Benidipine hydrochloride] + CCCCNC(=O)OCC#CI [3-iodo-2-propynyl butylcarbamate (IPBC)] | 87.2 ± 17 | 104 ± 12 |
| CC1(C)S[C@@H]2[C@H](NC(=O)[C@H](C(=O)O)c3ccsc3)C(=O)N2[C@H]1C(=O)O [Ticarcillin sodium] + CCCCNC(=O)OCC#CI [3-iodo-2-propynyl butylcarbamate (IPBC)] | 89.9 ± 3.2 | 92.2 ± 2.2 |
| Cc1cc(NS(=O)(=O)c2ccc(N)cc2)no1 [Sulfamethoxazole] + CCCCNC(=O)OCC#CI [3-iodo-2-propynyl butylcarbamate (IPBC)] | 45.6 ± 1.1 |  |
| O=C1CN(/N=C/c2ccc(-c3ccc([N+](=O)[O-])cc3)o2)C(=O)N1 [Dantrolene sodium salt] + CCCCNC(=O)OCC#CI [3-iodo-2-propynyl butylcarbamate (IPBC)] | 103 ± 3.8 | 104 ± 3.1 |
| CCOC(=O)n1ccn(C)c1=S [Carbimazole] + CCCCNC(=O)OCC#CI [3-iodo-2-propynyl butylcarbamate (IPBC)] | 76.72 ± 0.16 | 78.1 ± 0.94 |
| C[C@H](N)[C@H](O)c1cccc(O)c1 [Metaraminol bitartrate] + CCCCNC(=O)OCC#CI [3-iodo-2-propynyl butylcarbamate (IPBC)] | 86.25 ± 0.48 | 94.6 ± 0.42 |
| O=C1CN(/N=C/c2ccc([N+](=O)[O-])o2)C(=O)N1 [Nitrofurantoin] + CCCCNC(=O)OCC#CI [3-iodo-2-propynyl butylcarbamate (IPBC)] | 88.6 ± 4.1 | 98.4 ± 2.3 |
| OCCN(CCO)c1nc(N2CCCCC2)c2nc(N(CCO)CCO)nc(N3CCCCC3)c2n1 [Dipyridamole] + CCCCNC(=O)OCC#CI [3-iodo-2-propynyl butylcarbamate (IPBC)] | 44.5 ± 1.6 | 57.37 ± 0.52 |
| O=C(O)c1ccccc1C(=O)Nc1ccc(S(=O)(=O)Nc2nccs2)cc1 [Phthalylsulfathiazole] + CCCCNC(=O)OCC#CI [3-iodo-2-propynyl butylcarbamate (IPBC)] | 99.9 ± 14 | 101 ± 8.7 |
| O=C([O-])c1ccccc1-c1c2cc(Br)c(=O)cc-2oc2[c]([Hg+])c([O-])c(Br)cc12.[Na+].[Na+].[OH-] [Merbromin] + CCCCNC(=O)OCC#CI [3-iodo-2-propynyl butylcarbamate (IPBC)] | 5.4 ± 0.64 | 3.99 ± 0.21 |
| CC(C)[N+](C)(CCC(C(N)=O)(c1ccccc1)c1ccccc1)C(C)C [Isopropamide iodide] + CCCCNC(=O)OCC#CI [3-iodo-2-propynyl butylcarbamate (IPBC)] | 104 ± 6.8 | 97.3 ± 5.7 |
| CC(C)CC(N(C)C)C1(c2ccc(Cl)cc2)CCC1 (centres undefined) [Sibutramine hydrochloride] + CCCCNC(=O)OCC#CI [3-iodo-2-propynyl butylcarbamate (IPBC)] | 76.7 ± 0.79 | 90.82 ± 0.42 |
| C[C@H](CCC(=O)O)[C@H]1CC[C@H]2[C@@H]3[C@@H](O)C[C@@H]4C[C@H](O)CC[C@]4(C)[C@H]3CC[C@]12C [Urosiol] + CCCCNC(=O)OCC#CI [3-iodo-2-propynyl butylcarbamate (IPBC)] | 104 ± 12 | 99.7 ± 5.1 |
| C#C[C@]1(O)CC[C@H]2[C@@H]3CCC4=CCCC[C@@H]4[C@H]3CC[C@@]21C [Lynestrenol] + CCCCNC(=O)OCC#CI [3-iodo-2-propynyl butylcarbamate (IPBC)] | 72.11 ± 0.64 | 86.6 ± 1.5 |
| O=C(CCCN1CCN(c2ccccn2)CC1)c1ccc(F)cc1 [Azaperone] + CCCCNC(=O)OCC#CI [3-iodo-2-propynyl butylcarbamate (IPBC)] | 96.6 ± 9.5 | 101 ± 4.5 |
| NC[C@@H]1O[C@@H](O[C@H]2[C@H](O)[C@@H](O[C@H]3O[C@H](CO)[C@@H](O)[C@H](N)[C@H]3O)[C@H](N)C[C@@H]2N)[C@@H](O)[C@H](O)[C@H]1O [Kanamycin A sulfate] + CCCCNC(=O)OCC#CI [3-iodo-2-propynyl butylcarbamate (IPBC)] | 87.2 ± 9.4 | 93.4 ± 4.7 |
| COC(=O)C1=C(C#N)NC(C)=C(C(=O)OC(C)C)C1c1cccc([N+](=O)[O-])c1 (centres undefined) [Nilvadipine] + CCCCNC(=O)OCC#CI [3-iodo-2-propynyl butylcarbamate (IPBC)] | 107.2 ± 0.16 | 102 ± 2.5 |
| CC1CC(OC(=O)c2ccccc2O)CC(C)(C)C1 (centres undefined) [Homosalate] + CCCCNC(=O)OCC#CI [3-iodo-2-propynyl butylcarbamate (IPBC)] | 87.5 ± 9.7 | 91.9 ± 6.9 |
| CC[C@@H]1C(=O)OC[C@@H]1Cc1cncn1C [Pilocarpine nitrate] + CCCCNC(=O)OCC#CI [3-iodo-2-propynyl butylcarbamate (IPBC)] | 83.2 | 92.92 ± 0.21 |
| CC(C)NC[C@@H](O)COc1ccc(CC(N)=O)cc1 [(R)-(+)-Atenolol] + CCCCNC(=O)OCC#CI [3-iodo-2-propynyl butylcarbamate (IPBC)] | 101 ± 2.1 | 98.48 ± 0.52 |
| Cc1c(NC(=O)c2cccnc2)c(=O)n(-c2ccccc2)n1C [Nifenazone] + CCCCNC(=O)OCC#CI [3-iodo-2-propynyl butylcarbamate (IPBC)] | 83.23 ± 0.64 | 92.19 ± 0.1 |
| CS(=O)(=O)OCCCCOS(C)(=O)=O [Busulfan] + CCCCNC(=O)OCC#CI [3-iodo-2-propynyl butylcarbamate (IPBC)] | 108 ± 1.1 | 108 ± 2.9 |
| S=C(NC1CCCCC1)N1CCC(c2cnc[nH]2)CC1 [Thioperamide maleate] + CCCCNC(=O)OCC#CI [3-iodo-2-propynyl butylcarbamate (IPBC)] | 92.4 ± 4.5 | 95.9 ± 2.3 |
| COc1cccc2c1C(=O)c1c(O)c3c(c(O)c1C2=O)C[C@@](O)(C(C)=O)C[C@@H]3O[C@H]1C[C@H](N)[C@H](O)[C@H](C)O1 [Daunorubicin hydrochloride] + CCCCNC(=O)OCC#CI [3-iodo-2-propynyl butylcarbamate (IPBC)] | 9.21 ± 1.6 | 44.7 ± 1.3 |
